Inhibition data for 94 compounds are collected here from PubChem BioAssay AID485344 (National Center for Advancing Translational Sciences (NCATS), 2010).

Hit rate of the full screen: of about 340,000 compounds, about 6,900 (2%) were called active. Rule as the data show it: active = inhibition above about 30%; inactive = below that, where a call was filed. This is a selection; strong and weak results do not stand in their true shares. The source gives no active or inactive call for entries shown without one.

UniProt P14416, sequence (P14416 whole entry, looked up): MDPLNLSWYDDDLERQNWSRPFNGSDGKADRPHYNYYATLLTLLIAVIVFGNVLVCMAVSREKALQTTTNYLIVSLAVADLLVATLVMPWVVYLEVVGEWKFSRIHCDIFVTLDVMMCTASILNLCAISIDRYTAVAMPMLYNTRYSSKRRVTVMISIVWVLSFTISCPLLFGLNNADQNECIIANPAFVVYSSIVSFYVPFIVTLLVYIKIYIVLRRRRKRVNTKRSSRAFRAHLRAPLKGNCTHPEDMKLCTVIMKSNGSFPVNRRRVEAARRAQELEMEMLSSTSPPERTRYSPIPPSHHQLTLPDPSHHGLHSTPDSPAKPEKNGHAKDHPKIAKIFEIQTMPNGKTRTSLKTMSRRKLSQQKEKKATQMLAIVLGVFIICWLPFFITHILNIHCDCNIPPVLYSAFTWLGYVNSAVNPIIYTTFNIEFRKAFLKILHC

In the assay the target is D(2) dopamine receptor (Homo sapiens) (UniProt P14416). Nature of the assay: HTS Assay for Allosteric Antagonists of the Human D2 Dopamine Receptor: Primary Screen for Antagonists. Also: 0% is about no effect. As to conditions: HEK293 TREx D2 cells, calcium flux, dopamine EC80; at 10 µM; stronger effect = higher value. The method in brief:
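Dopamine at EC80 is the agonist stimulus; test compounds precede it by 180 s. Calcium flux read kinetically in a force-coupled, inducible HEK293 T-REx D2 cell line.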
As for `CCOC(=O)N1CCN(C(=O)c2ccc3c(c2)N(Cc2cc(C)ccc2C)C(=O)c2ccccc2S3=O)CC1` (centres undefined), the inhibition worked out at 4.78%.
For `CCCCOc1nnc(-c2ccc(OCC)cc2)c2ccccc12`, the inhibition came out at 6.6%.
On to `COc1ccc(CCNC(=O)CCc2cn(Cc3ccc(C)cc3)c3ccccc23)cc1OC`, for which the inhibition was -2.65%.
`CCC(Sc1nc2ccncc2[nH]1)C(=O)Nc1ccc(F)cc1` (centres undefined): the inhibition was -12.9%.
`CCOc1ccc(N(C)C(=O)C2CCN(S(=O)(=O)c3ccc4c(c3)CCCN4C(C)=O)CC2)cc1`: the inhibition is 2.58%.
With `Cc1ccc(-n2nc(CO)c(C(=O)NCCc3ccccc3)n2)cc1`, the inhibition amounted to 12.3%.
Turning to `COc1cccc(-n2c(=O)c3sc4ccccc4c3n(CC(=O)Nc3ccccc3OC)c2=O)c1`, the inhibition was determined as 2.34%.
Turning to `Cc1ccc(Cl)cc1N1CCN(C(=O)Cn2ncc3c([nH]c4ccccc43)c2=O)CC1`, the inhibition was -0.235%.
On to `O=S(=O)(c1ccccc1)c1nnn2c1nc(Nc1ccccc1)c1cc(Cl)ccc12`, for which the inhibition is -7.92%.
For `COc1cccc(C(=O)NCC(=O)OCc2cc(=O)n3nc(C)sc3n2)c1`, the inhibition is 8.35%.
Then `O=C(CSc1ncc(S(=O)(=O)c2ccc(Cl)cc2)c(=O)[nH]1)Nc1ccc2c(c1)OCCO2`, with -17.5%; and `COc1ccc(C(=O)N/C(=C\c2ccc([N+](=O)[O-])cc2)C(=O)NC(CCSC)C(=O)O)cc1` (centres undefined), with active: 34.8%; and `CCCC(=O)Nc1nnc(SCc2cc(=O)c3ccc(C)cc3[nH]2)s1`, with -20.2%.
As for `CCCCNC(=O)C1=CC(c2ccc3c(c2)OCO3)=NS(=O)(=O)N1C`, the inhibition amounted to 17.9%.
Then `O=C1SC(Nc2ccc(Cl)cc2)C(=O)N1Cc1ccccc1` (centres undefined), with -14.1%; and `CCCc1cc(=O)n2[nH]c(NCc3ccc(CC)cc3)nc2n1`, with -11%.
As to `O=C1c2[nH]nc(-c3ccccc3)c2C(c2ccccc2)N1c1cccc(C(F)(F)F)c1` (centres undefined), the inhibition is 5.2%.
Regarding `O=C1CS(=O)(=O)C2(C(=O)N(Cc3ccc(F)cc3)c3ccccc32)N1c1cccc(C(F)(F)F)c1` (centres undefined), the inhibition came to 4.32%.
Turning to `Cc1ccc2oc(C(=O)Nc3ccc(S(=O)(=O)Nc4onc(C)c4C)cc3)cc(=O)c2c1`, the inhibition was -1.96%.
As for `CCOC(=O)c1c(C)[nH]c(C)c1S(=O)(=O)N1CCC(C(=O)N2CCN(c3cc(C)ccc3C)CC2)CC1`, the inhibition is -12.7%.
With `CC1CCN(S(=O)(=O)c2ccc3c(c2)N(CC(=O)NCCc2ccc(Cl)cc2)C(=O)CO3)CC1`, the inhibition is -7.62%.
Turning to `Cc1ccc(NC(=O)CCCn2c3ccccc3c(=O)c3cc(C)ccc32)c(Br)c1`, the inhibition is -6.49%.
Take `Cc1ccccc1NC(=O)CSc1cn(CC(=O)N(C(C)C)C(C)C)c2ccccc12`: the inhibition is -4.01%.
Regarding `COCCNC(=O)C1CCN(c2nc3ccccc3nc2C(F)(F)F)CC1`, the inhibition was determined as 1.77%.
As for `CC1CCN(CCCCOc2ccc(C(C)(C)C)cc2)CC1`, the inhibition is active: 32.6%.
Turning to `COc1cc2c(cc1OC)n(Cc1ccc([N+](=O)[O-])cc1)c(=O)n1nc(-c3ccccc3)nc21`, the inhibition is -8.56%.
Consider `Cc1cccc(NC(=S)NC2CC3CCCC(C2)N3Cc2ccccc2)c1C` (centres undefined), for which the inhibition is active: 105%.
Then `COc1cc2c(cc1OC)C(COc1ccc3c(C)cc(=O)oc3c1)N(C(=O)c1ccccc1F)CC2` (centres undefined), with 5.92%; and `CCOC(=O)/C(=C\C=C1/Sc2cc(OCC)c(OCC)cc2N1CC)C(C)=O`, with active: 65.5%; and `CC1CCN(c2nc3c(S(=O)(=O)c4ccc(Cl)cc4)nnn3c3ccsc23)CC1`, with -1.38%.
Consider `COc1ccc(CCNc2nc3c(-c4cccc(F)c4)nnn3c3ccccc23)cc1OC`, for which the inhibition was found to be 1.52%.
Then `Cc1cccc(NC(=O)CSc2nc(-c3ccccc3Cl)nc3c2Cc2c(CO)cnc(C)c2O3)c1C`, with 0.291%.
With `CC(OCCN1CCCC1)(c1ccc(F)cc1)c1ccc(F)cc1`, the inhibition is active: 73.2%.
With `CCOc1cccc(C2CC(=O)Nc3cc4c(cc32)OCCO4)c1` (centres undefined), the inhibition stood at 19.7%.
Consider `COc1ccc(OCC(=O)NC2CC(=O)N(c3ccc4c(c3)OCCO4)C2)cc1` (centres undefined), for which the inhibition was -2.5%.
As to `COc1ccc(-c2ccc(NS(=O)(=O)c3cccc(C)c3)cc2)nn1`, the inhibition is -3.93%.
Under `COc1ccc(CCNC(=O)C2CCN(c3nc4ccccc4nc3C(F)(F)F)CC2)c(OC)c1` stands -8.77%; under `CCN(CC)c1ccc(/C=C2\C(=O)c3ccc(C(=O)O)cc3C2=O)cc1`, active: 54.4%; under `Cc1ccc(C)c(CN2C(=O)C3(c4ccccc42)N(c2ccc(Cl)cc2)C(=O)CS3(=O)=O)c1` (centres undefined), 3.46%.
With `COc1ccc(CNc2nc3ccccc3c3nc(-c4ccccc4)nn23)cc1`, the inhibition is 0.239%.
On to `COc1ccc(OC)c(N2CC(O)(c3cccs3)[N+]3=C2SCCC3)c1` (centres undefined), for which the inhibition was active: 40%.
`Cc1ccc(OCC(=O)Nc2nc(-c3ccc(Br)cc3)ns2)cc1C`: the inhibition amounted to 6.39%.
In the case of `Cc1ccccc1OCC(=O)Nc1ccc2nc(SCc3ccccc3)sc2c1`, the inhibition amounted to 18%.
Under `CCn1c(C(=O)NCc2cc(Br)ccc2OC)cc2oc3ccccc3c21` stands 7.67%; under `CCN(C(=O)Cn1cnc2onc(-c3ccc(F)cc3)c2c1=O)c1cc(C)ccc1C`, 16.4%; under `Cc1ccc(NC(=O)N2CCN(c3cc(-c4noc(C)n4)ccc3C)CC2)c(C)c1`, -5.32%.
Then `Cc1cccc(CCNC(=O)CN(c2ccc(C(C)C)cc2)S(=O)(=O)c2c(C)nn(C)c2C)c1`, with -26.8%; and `CCOC(=O)c1sc2nc(CSc3ccccc3)nc(N3CCCN(C)CC3)c2c1C`, with active: 53.2%; and `Cc1ccccc1-c1nnc(SCC(=O)N(C)C2CCCCC2)o1`, with -2.82%.
Consider `O=C(NCCN1CCN(c2ccccc2)CC1)Nc1cccc(Cl)c1`, for which the inhibition is active: 72.5%.
Then `O=C(NCc1ccc(F)cc1)c1ccc2c(c1)nnn2C1CCCC1`, with 13.3%; and `COc1ccc(N2C(=O)CS(=O)(=O)C23C(=O)N(Cc2ccc(C)cc2)c2ccccc23)cc1Cl` (centres undefined), with 0.636%.
Take `CCOc1ccc(NC(=O)N2CCN(Cc3cc(=O)n4nc(-c5ccc(OC)cc5)sc4n3)CC2)cc1`: the inhibition was -7.45%.
Consider `Cc1c(NC(=O)c2cc(-c3ccc(Cl)cc3)on2)c(=O)n(-c2ccccc2)n1C`, for which the inhibition was -10.1%.
`CCOC(=O)c1[nH]c(C)c(CCC(=O)NCc2ccc(OC)cc2)c1C`: the inhibition turned out to be 1.51%.
Under `CC(=O)c1ccc(NC(=O)C2CCC(CNS(=O)(=O)c3cccs3)CC2)cc1` (centres undefined) stands 11.4%; under `Cc1cccc(NC(=O)Cn2c(=O)ccc3cc(S(=O)(=O)N4CCCC4)ccc32)c1C`, 12.5%; under `CCOC(=O)c1noc2nc(C)n(Cc3cccc(C#N)c3)c(=O)c12`, -1.11%.
For `COc1ccc(CCNC(=O)c2ccc3c(c2)nc2n3CCC(C)C2)cc1OC` (centres undefined), the inhibition amounted to 1.5%.
For `C/C(=N\Nc1ccc(Cl)c(C(=O)O)c1)c1ccc(Br)s1`, the inhibition is active: 47.1%.
Under `CC(=O)c1ccc(NS(=O)(=O)c2ccc(-c3cc(C)no3)s2)cc1` stands -8.13%; under `Cc1ccc(NC(=O)c2ccc(CN3C(=O)CCn4nc(C)cc43)cc2)c(Cl)c1`, -5.59%.
Then `CCCn1c(=O)c2sccc2n2c(CCCC(=O)Nc3ccc(Oc4ccc(Cl)cc4)cc3)nnc12`, with 9.98%; and `CCOc1ccc(CCNC(=O)C2CCN(C(=O)c3cc4sccc4n3CC)CC2)cc1OCC`, with -2.13%.
Consider `O=C(NNc1nc2c(F)cc(F)cc2s1)C1=COCCO1`, for which the inhibition was active: 39.2%.
Then `CCCCOc1ccc(S(=O)(=O)Nc2ccc(-c3ccc(N4CCC(C)CC4)nn3)cc2)cc1`, with 6.33%; and `COc1cccc(-c2nnc(SCC(=O)NC3CCCCC3)o2)c1`, with -4.6%.
In the case of `COc1ccc(S(=O)(=O)Nc2ccc(-c3cn4ccsc4n3)cc2)cc1C`, the inhibition was -15.7%.
Turning to `CCOC(=O)N1CCN(CCC(=O)Nc2ccccc2OC)CC1`, the inhibition was active: 50%.
Take `COc1cccc(N2CCN(C(=O)c3cccn3-c3nnc(N4CCCC4)s3)CC2)c1`: the inhibition worked out at 6.53%.
On to `COCCCNC(=O)c1ccc(-n2c(-c3ccccc3)cc3c2CCC(C)C3)cc1` (centres undefined), for which the inhibition is -25%.
Then `Cc1c(NC(=O)c2cc(=O)c3ccccc3o2)c(=O)n(-c2ccccc2)n1C`, with 11.7%.
Consider `Cc1coc2c(C)c3oc(=O)c(CC(=O)NCCc4ccc(Cl)cc4)c(C)c3cc12`, for which the inhibition was -14.4%.
Under `C=CCc1c(C)nc2nc(SCC(=O)Nc3ccc(C)c(C)c3)nn2c1C` stands 23.2%; under `Cc1cccc(CSc2nc(-c3cccs3)ccc2C#N)c1`, -11%; under `COc1ccc(NC(=O)C2CCCN(S(=O)(=O)c3ccc4c(c3)oc(=O)n4C)C2)c(OC)c1` (centres undefined), -23.5%.
Then `CCOC(=O)N1CCc2c(sc3c2c(=O)n(Cc2ccccc2)c(=O)n3Cc2ccccc2Cl)C1`, with -13.7%; and `Cc1ccc2ncc(C(=O)N3CCN(c4ccccc4F)CC3)c(=O)n2c1`, with 12.9%; and `CCCCNC(=O)c1cc2c(C)cc(C)cc2[nH]1`, with active: 34.1%.
Consider `Cc1c(NC(=O)c2cc(-c3cccc(O)c3)on2)c(=O)n(-c2ccccc2)n1C`, for which the inhibition is -24.5%.
`O=C(CN1CCN(c2ccc(F)cc2)CC1)N1N=CCC1c1ccccc1` (centres undefined): the inhibition is active: 36.3%.
For `COc1cccc(NC(=O)C2CCN(c3nnc(C)c4c(C)n(-c5ccccc5)nc34)CC2)c1`, the inhibition was 16.9%.
Turning to `CCc1ccc(OCC(=O)N(Cc2ccc(C)o2)C2CCS(=O)(=O)C2)cc1` (centres undefined), the inhibition was found to be 2.89%.
Under `Cc1ccc(S(=O)(=O)N(CC(=O)NCCc2ccc(Cl)cc2)c2ccccc2C)cc1` stands -3.33%; under `COc1ccc(CCNC(=O)c2cnn(-c3ccc(F)cc3)c2C2CCN(C(=O)OC(C)(C)C)CC2)c(OC)c1`, 15.1%.
Under `CCc1ccccc1NC(=O)N1CCc2c([nH]c3ccccc23)C1c1ccc(C)cc1` (centres undefined) stands 5.5%; under `COc1ccccc1N1CCN(c2ncc3c(n2)CCN(Cc2ccccc2F)C3)CC1`, 14.4%; under `Cc1ccc(CSc2oc(-c3cccs3)nc2S(=O)(=O)c2ccccc2)cc1`, 2%.
`CC(=O)c1ccc(N2CCN(c3ncnc4c3nc3n4CCCC3)CC2)cc1`: the inhibition is 5.88%.
Consider `COc1ccc(CCNC(=O)Cc2c(C)c3c(cc(C)c4c(C)c(C)oc43)oc2=O)cc1`, for which the inhibition was 11.7%.
For the compound `COCCCNC(=O)c1cn(CCOC)c(=O)c2c1c1ccccc1n2C`, the inhibition is -1.69%.
As to `Cc1ccc(NC(=O)CSc2nnc3[nH]c(=O)cc(-c4ccccc4)n23)cc1Cl`, the inhibition is 1.6%.
On to `COc1ccc(-c2noc(CCC(=O)Nc3ccc(C(F)(F)F)cc3)n2)cc1`, for which the inhibition came out at 12.8%.
Turning to `Cc1ccccc1CNC(=O)CN1C(=O)CSc2ccc(S(=O)(=O)N(C)C)cc21`, the inhibition was 0.264%.
